Reference: a collection of fitness landscapes (doi:10.1126/science.1257360)
The list shows a part of the results.

B1: PhoQ; a variant is named by its letters at X, in order, P23837 (parent)
chain: MKKLLRLFFPLSLRVRFLLATAAVVLVLSLAYGMVALIGYSVSFDKTTFRLLRGESNLFYTLAKWENNKLHVELPENIDKQSPTMTLIYDENGQLLWAQRDVPWLMKMIQPDWLKSNGFHEIEADVNDTSLLLSGDHSIQQQLQEVREDDDDAEMTHSVAVNVYPATSRMPKLTIVVVDTIPVELKSSYMVWSWFIYVLSANLLLVIPLLWVAAWWSLRPIEALAKEVRELEEHNRELLNPATTRELTSLVRNLNRLLKSERERYDKYRTTLTDLTHSLKTPLXXLQXXLRSLRSEKMSVSDAEPVMLEQISRISQQIGYYLHRASMRGGTLLSRELHPVAPLLDNLTSALNKVYQRKGVNISLDISPEISFVGEQNDFVEVMGNVLDNACKYCLEFVEISARQTDEHLYIVVEDDGPGIPLSKREVIFDRGQRVDTLRPGQGVGLAVAREITEQYEGKIVAGESMLGGARMEVIFGRQHSAPKDE

Variants of: B1
Assay: enrichment ratio after two sorts for PhoP signalling (ratio (wild type AVST 3.29)); higher = more functional
Details: with PhoP (E. coli)

| Variant | enrichment ratio |
| --- | --- |
| TFEN | ≤ 0.25 |
| VFRV | ≤ 0.25 |
| HFYM | ≤ 0.25 |
| HMDQ | ≤ 0.25 |
| GYRW | ≤ 0.25 |
| SETP | ≤ 0.25 |
| VKGD | ≤ 0.25 |
| MVFA | ≤ 0.25 |
| WLSH | ≤ 0.25 |
| FYDC | ≤ 0.25 |
| HSLS | ≤ 0.25 |
| TPST | ≤ 0.25 |
| TERI | ≤ 0.25 |
| MPTI | ≤ 0.25 |
| LIWL | ≤ 0.25 |
| LTHA | ≤ 0.25 |
| PVMW | ≤ 0.25 |
| YPSS | ≤ 0.25 |
| EMKT | ≤ 0.25 |
| QMMG | ≤ 0.25 |
| KECD | ≤ 0.25 |
| WQSD | ≤ 0.25 |
| NRWY | ≤ 0.25 |
| LPCD | ≤ 0.25 |
| PLSL | ≤ 0.25 |
| YHLW | ≤ 0.25 |

| Variant | enrichment ratio |
| --- | --- |
| KAYI | ≤ 0.25 |
| ETYF | ≤ 0.25 |
| YHHQ | ≤ 0.25 |
| MVHF | 0.626 |
| AHSK | ≤ 0.25 |
| TDRK | ≤ 0.25 |
| KEDC | ≤ 0.25 |
| MRQD | ≤ 0.25 |
| RGDR | ≤ 0.25 |
| STYT | 0.437 |
| NGVH | ≤ 0.25 |
| KQHE | ≤ 0.25 |
| HGRF | ≤ 0.25 |
| HWAH | ≤ 0.25 |
| EQTK | ≤ 0.25 |
| TCSE | 4.12 |
| GETR | ≤ 0.25 |
| NRNW | ≤ 0.25 |
| MMTK | ≤ 0.25 |
| NSST | ≤ 0.25 |
| SCTE | 1.69 |
| SNKI | ≤ 0.25 |
| YVCE | ≤ 0.25 |
| GMSC | ≤ 0.25 |
| LLGA | ≤ 0.25 |
| SIKV | ≤ 0.25 |

| Variant | enrichment ratio |
| --- | --- |
| SFHF | ≤ 0.25 |
| RDGE | ≤ 0.25 |
| KALV | ≤ 0.25 |
| FCTP | ≤ 0.25 |
| LLTG | ≤ 0.25 |
| ADLY | 1.07 |
| DDHT | ≤ 0.25 |
| KKGG | ≤ 0.25 |
| LISY | ≤ 0.25 |
| LYGF | ≤ 0.25 |
| LWFH | ≤ 0.25 |
| WAHG | ≤ 0.25 |
| NKQC | ≤ 0.25 |
| VCFM | ≤ 0.25 |
| NWAH | ≤ 0.25 |
| LWCD | ≤ 0.25 |
| HIHS | ≤ 0.25 |
| TSWR | ≤ 0.25 |
| YPQE | ≤ 0.25 |
| FKVL | ≤ 0.25 |
| KLAG | ≤ 0.25 |
| KFMV | ≤ 0.25 |
| FDWT | ≤ 0.25 |
| HDKH | ≤ 0.25 |
| DIWT | ≤ 0.25 |
| VNFP | 0.624 |

| Variant | enrichment ratio |
| --- | --- |
| NIVR | ≤ 0.25 |
| WRAV | ≤ 0.25 |
| SYVV | 0.291 |
| RETQ | ≤ 0.25 |
| DVTI | ≤ 0.25 |
| ELFD | ≤ 0.25 |
| FCGV | ≤ 0.25 |
| KDGF | ≤ 0.25 |
| LNPS | ≤ 0.25 |
| YKWQ | ≤ 0.25 |
| ALCY | 6.92 |
| GCRF | ≤ 0.25 |
| SKQF | ≤ 0.25 |
| TFYG | ≤ 0.25 |
| TLNH | 9.5 |
| LQID | ≤ 0.25 |
| YCSE | 0.428 |
| PVYN | ≤ 0.25 |
| SGKI | ≤ 0.25 |
| IICG | ≤ 0.25 |
| RVNC | ≤ 0.25 |
| RMNY | ≤ 0.25 |
| DWYC | ≤ 0.25 |
| WDCN | ≤ 0.25 |
| VSCQ | 4.61 |
| WQHP | ≤ 0.25 |

| Variant | enrichment ratio |
| --- | --- |
| MWLC | ≤ 0.25 |
| NFFG | ≤ 0.25 |
| GAMT | ≤ 0.25 |
| PIKP | ≤ 0.25 |
| DMNF | ≤ 0.25 |
| KECI | ≤ 0.25 |
| NHEN | ≤ 0.25 |
| VNEN | ≤ 0.25 |
| FSVI | 7.81 |
| KYAC | ≤ 0.25 |
| IPLI | ≤ 0.25 |
| NLRL | ≤ 0.25 |
| AKER | ≤ 0.25 |
| RIKG | ≤ 0.25 |
| SINY | 4.58 |
| VDIQ | ≤ 0.25 |
| SRMH | 3.42 |
| TLQR | 0.757 |
| DYCC | ≤ 0.25 |
| SYGK | ≤ 0.25 |
| AVPN | ≤ 0.25 |
| TCPT | ≤ 0.25 |
| GWAQ | ≤ 0.25 |
| SWQM | ≤ 0.25 |
| EVCL | ≤ 0.25 |
| YCCF | ≤ 0.25 |

| Variant | enrichment ratio |
| --- | --- |
| GYPA | ≤ 0.25 |
| RYFE | ≤ 0.25 |
| MHRT | ≤ 0.25 |
| NWMP | ≤ 0.25 |
| MKHS | ≤ 0.25 |
| DVHF | ≤ 0.25 |
| QHDT | 8.45 |
| RFAK | ≤ 0.25 |
| GTAR | ≤ 0.25 |
| LYWY | ≤ 0.25 |
| FVNA | ≤ 0.25 |
| HYCN | ≤ 0.25 |
| YGQP | ≤ 0.25 |
| GSDP | ≤ 0.25 |
| ELYS | ≤ 0.25 |
| AYCP | ≤ 0.25 |
| GGCP | ≤ 0.25 |
| RWVH | ≤ 0.25 |
| ADSD | ≤ 0.25 |
| HQYL | ≤ 0.25 |
| ADMN | ≤ 0.25 |
| ITSG | ≤ 0.25 |
| PKRE | ≤ 0.25 |
